From PubChem BioAssay AID463173 (ICCB-Longwood Screening Facility, Harvard Medical School, 2010)
Screen size: about 52,000 compounds; about 1,700 (3.3%) were called active. Rule as the data show it: active = survival mostly below about 52% (no sharp cut-off); inactive = mostly above about 56%. The list shows a part of the results.

What follows are compounds tested on Wild type (assay: growth inhibition of S. aureus wild type versus tarO mutant, primary screen, teichoic acid synthesis inhibitors, RN4220, OD600 (AID 463173)). Conditions: S. aureus RN4220 wild type/DeltatarO growth, OD600, 18 h, active compounds read low, screened at 18.75 µg/mL (by protocol).

Q: `COC(=O)CN1C(=O)CSc2ccc(S(=O)(=O)Nc3c(C)cc(C)cc3C)cc21` was tested. Which survival did it give?
A: inactive: 78%

Q: Which survival does the source give for `CCOC(=O)c1ccc(NC(=O)CSc2nc(-c3cccs3)cc(C(F)(F)F)c2C#N)cc1` here?
A: inactive: 85%

Q: How did the survival turn out when `Cc1ccc(NC(=O)N2CCN(Cc3nc4ccc(C)cc4o3)CC2)c(Cl)c1` was run?
A: inactive: 66%

Q: `CC(=O)C1=C(c2ccc(Cl)c(Cl)c2)N(C(C)=O)n2cnnc2S1` was tested. Which survival did it give?
A: inactive: 131%

Q: `O=C1CN(C(=O)COc2ccc(Cl)cc2)C(c2ccc(F)cc2)c2cc(Br)ccc2N1` (stereo unspecified) was tested. Which survival did it give?
A: inactive: 52%

Q: For `COc1ccc(-c2nnc(SCC(=O)Nc3cccc(Cl)c3C)nc2-c2ccc(OC)cc2)cc1`, which survival is on record?
A: inactive: 72%

Q: How did the survival turn out when `COc1ccc(NC(=O)CCNS(=O)(=O)c2ccc3c(c2)CCN3C(=O)C2CC2)cc1Cl` was run?
A: inactive: 76%

Q: How did the survival turn out when `Cc1cc(C)n(-c2nc(C)c(C)c(=O)n2CC(=O)Nc2ccc(Cl)c(Cl)c2)n1` was run?
A: inactive: 84%

Q: Which survival does the source give for `CC(=O)Nc1ccc(NC(=O)c2c(C)nn(-c3ccccc3)c2-n2cccc2)cc1` here?
A: inactive: 80%

Q: `Cc1ccc(CNc2ncnc3c2cnn3-c2ccc(C)cc2C)cc1` was tested. Which survival did it give?
A: inactive: 73%

Q: How did the survival turn out when `Cc1ccc(CNC(=O)c2ccc3c(c2)nc2n3CCCC2)cc1` was run?
A: inactive: 91%

Q: How did the survival turn out when `Cc1cc(C)c(NC(=O)Cn2nnc(C(=O)Nc3ccc(F)cc3F)c2N)c(C)c1` was run?
A: inactive: 71%

Q: For `COc1ccc(-c2cc(OC(=O)c3cccc(C)c3)c3c(C)oc(C)c3c(=O)c2)cc1`, which survival is on record?
A: inactive: 131%

Q: Which survival does the source give for `CCc1nn2c(=O)cc(COC(=O)C3CCCCC3)nc2s1` here?
A: inactive: 72%

Q: `COc1cccc(NC(=O)c2nnn(Cc3ccc(OC)c(Br)c3)c2N)c1` was tested. Which survival did it give?
A: inactive: 66%

Q: With `CCOC(=O)c1cc(-c2ccccc2)n(CCCC(=O)Nc2ccc(C)cc2Cl)c1C` as the compound, how does the survival read?
A: inactive: 91%

Q: With `CCn1cc(C(=O)NCc2ccccc2OC)c(=O)c2cc(S(=O)(=O)N3CCCCCC3)ccc21` as the compound, how does the survival read?
A: inactive: 74%

Q: Which survival does the source give for `COC(=O)c1c(O)c2c([nH]c1=O)CCCC2` here?
A: inactive: 109%

Q: `CCc1ccc(NC(=O)C2CCCN(S(=O)(=O)c3cccc4nonc34)C2)cc1` (stereo unspecified) was tested. Which survival did it give?
A: inactive: 88%

Q: With `Cc1cc(C)nc(NC(N)=NC2CCCCC2)n1` as the compound, how does the survival read?
A: inactive: 104%

Q: `COc1ccc(CNC(=O)C2CCN(S(=O)(=O)c3ccc4nc5c(c(C(=O)O)c4c3)CC(C)CC5)CC2)cc1` (stereo unspecified) was tested. Which survival did it give?
A: inactive: 77%

Q: With `Cc1cc(C)c(NS(=O)(=O)c2cc(-c3cnc(C4CC4)o3)ccc2C)c(C)c1` as the compound, how does the survival read?
A: inactive: 140%

Q: For `COc1cccc(NS(=O)(=O)c2cc3c4c(c2)C(C)C(=O)N4CCC3)c1` (stereo unspecified), which survival is on record?
A: inactive: 73%

Q: `CCOc1ccc2nc3c(cc2c1)CN(CCO)C(=Nc1cccc(OC)c1)S3` was tested. Which survival did it give?
A: inactive: 107%

Q: Which survival does the source give for `COc1cc(-c2noc(C3CC(=O)N(c4cc(C)ccc4C)C3)n2)cc(OC)c1OC` (stereo unspecified) here?
A: inactive: 73%

Q: For `Cc1ccsc1CCN1C(=O)N(c2ccc(F)cc2)C(=O)C1CC(=O)Nc1ccccc1` (stereo unspecified), which survival is on record?
A: inactive: 72%

Q: For `CN1C(=O)Cc2cc(S(=O)(=O)CCC(=O)N3CCN(c4cccc(Cl)c4)CC3)ccc21`, which survival is on record?
A: inactive: 83%

Q: `CCc1ccc(NC(=O)c2c(C(=O)Nc3ccccc3)sc3nc(C)cc(=O)n23)cc1` was tested. Which survival did it give?
A: inactive: 114%

Q: `CCOc1ccc(NC(=O)Cn2cnc3c(oc4ccccc43)c2=O)cc1` was tested. Which survival did it give?
A: inactive: 90%

Q: How did the survival turn out when `COc1cccc(-c2cc(C(=O)N3CCN(c4ccc(F)cc4)CC3)no2)c1` was run?
A: inactive: 78%

Q: How did the survival turn out when `COc1ccc(-n2nnnc2SCC(=O)c2ccc3c(c2)OCCO3)c(OC)c1` was run?
A: inactive: 111%

Q: How did the survival turn out when `COc1ccc2c(c1)c1c(c(=O)n(-c3cccc(C)c3)c(=O)n1CC(=O)N1CCCC1)n2C` was run?
A: inactive: 82%

Q: `Cc1cc(C)c2c(=O)cc(C(=O)Nc3ccc(S(=O)(=O)Nc4onc(C)c4C)cc3)oc2c1` was tested. Which survival did it give?
A: inactive: 85%

Q: With `CC(C)(C)OC(=O)N1CCC(c2c(C(=O)NCc3ccccn3)cnn2-c2ccc(F)cc2)CC1` as the compound, how does the survival read?
A: inactive: 159%

Q: Which survival does the source give for `Cc1ccc2c(=O)cc(C(=O)Nc3c(C(=O)c4ccccc4)oc4ccccc34)oc2c1C` here?
A: inactive: 94%

Q: `CCC(C)NC(=O)c1ccc2c(c1)N=C(C)c1cc(C)ccc1S2` (stereo unspecified) was tested. Which survival did it give?
A: inactive: 113%

Q: With `CCCn1cc(S(=O)(=O)c2cc(C)ccc2C)c(=O)c2cc(F)c(N3CCCCCC3)cc21` as the compound, how does the survival read?
A: inactive: 83%

Q: Which survival does the source give for `COc1ccc(-c2cc(-c3ccccc3)nc3c2COc2ccccc2-3)cc1` here?
A: inactive: 51%

Q: With `CC(C)CC(=O)Nc1nnc2n1CCS2` as the compound, how does the survival read?
A: inactive: 73%

Q: With `CCOc1ccc(NCc2cccn2-c2nnc(N3CCC(C(=O)NCc4cccc(OC)c4)CC3)s2)cc1` as the compound, how does the survival read?
A: inactive: 75%

Q: With `CCN1C(=O)c2ccccc2Sc2ccc(NC(=O)Cc3ccc(OC)cc3)cc21` as the compound, how does the survival read?
A: inactive: 83%

Q: `CCc1ccccc1N(c1nc(-c2ccc(OC)c(OC)c2)no1)c1nc(-c2ccc(OC)c(OC)c2)no1` was tested. Which survival did it give?
A: inactive: 75%

Q: Which survival does the source give for `COc1cccc(NC(=O)C(=O)NCCc2csc3nc(-c4ccccc4C)nn23)c1` here?
A: inactive: 81%

Q: `COc1ccc(-n2nnc(C(=O)Nc3ccccc3F)c2N)cc1` was tested. Which survival did it give?
A: inactive: 75%

Q: `Cc1ccc(Cc2nc3ccccc3nc2SCC(=O)NCCc2ccccc2)cc1` was tested. Which survival did it give?
A: inactive: 60%

Q: With `COC(=O)c1c(NC(=O)c2nc(SC)ncc2Cl)sc2c1CCCC2` as the compound, how does the survival read?
A: inactive: 90%

Q: How did the survival turn out when `CC(=O)NCc1nc2cccnc2n1Cc1ccccc1` was run?
A: inactive: 87%

Q: For `CC(=O)c1cc(-c2ccccc2)n(CCC(=O)NCCc2ccccc2)c1C`, which survival is on record?
A: inactive: 121%

Q: With `c1ccc(-n2nnnc2N2CCCC2)cc1` as the compound, how does the survival read?
A: inactive: 102%

Q: Which survival does the source give for `Cc1ccc(-c2nnn(CCC(=O)NC(C)(C)C)n2)cc1` here?
A: inactive: 120%

Q: `Cc1oc(-c2cccc(Cl)c2)nc1CSc1nnc(C)n2c1cc1occc12` was tested. Which survival did it give?
A: inactive: 86%

Q: `Cc1cccc(CCNC(=O)c2ccc3c(c2)nc2n3CCCCC2)c1` was tested. Which survival did it give?
A: inactive: 85%

Q: For `Cc1nc2c(-c3ccc(F)cc3)c(C)nn2c(C)c1CCC(=O)N1CCN(c2ccc(F)cc2)CC1`, which survival is on record?
A: inactive: 73%

Q: Which survival does the source give for `COc1ccc(Cl)cc1N(C)C(=O)Cc1noc2ccc(C)cc12` here?
A: inactive: 85%

Q: For `COc1ccccc1N1CCN(C(=O)Cn2cnc3sc(C)c(S(=O)(=O)N4CCC(C)CC4)c3c2=O)CC1`, which survival is on record?
A: inactive: 88%

Q: With `CCc1cccc(C)c1NC(=O)Cn1c(=O)n(-c2cccc(C)c2)c(=O)c2c1c1cc(C)ccc1n2C` as the compound, how does the survival read?
A: inactive: 94%
